# Results as given in PubChem BioAssay AID485294 (National Center for Advancing Translational Sciences (NCATS), 2010).
# Out of some 370,000 compounds screened, about 150 (0.041%) were called active. Inconclusive results, whose numbers are uncertain, are shown with a selection of clear calls. Calls follow the shape of the dose curve; as a rule, active = well fitted inhibition curve with a large enough effect; inconclusive = small, poorly fitted or top-dose-only effect; inactive = flat fitted curve, though single readings scatter. Potencies of inconclusive entries are left out as doubtful fits.
# Target: Beta-lactamase (Escherichia coli (strain K12)) (UniProt P00811)
# Assay: qHTS Inhibitors of AmpC Beta-Lactamase (assay with detergent); also: nearly all actives have a fitted effect of over 25% in size
# Conditions: AmpC hydrolysis of nitrocefin, absorbance 480 nm, 0.01% Triton; series mostly up to 114 µM
# How it was run: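 AmpC (5.3 nM in the dispensed reagent) in 20 mM phosphate pH 7.0 with 0.01% (detergent screen) or 0.0001% Triton X-100 was preincubated with compounds for 15 min at room temperature. Nitrocefin was then added from an 800 uM solution, and hydrolysis was followed at 480 nm.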
# Potency is read from the fitted curve at half-maximal effect; tags tell the direction and shape of the fitted curve.
# Sequence of UniProt P00811 (P00811 whole entry, looked up): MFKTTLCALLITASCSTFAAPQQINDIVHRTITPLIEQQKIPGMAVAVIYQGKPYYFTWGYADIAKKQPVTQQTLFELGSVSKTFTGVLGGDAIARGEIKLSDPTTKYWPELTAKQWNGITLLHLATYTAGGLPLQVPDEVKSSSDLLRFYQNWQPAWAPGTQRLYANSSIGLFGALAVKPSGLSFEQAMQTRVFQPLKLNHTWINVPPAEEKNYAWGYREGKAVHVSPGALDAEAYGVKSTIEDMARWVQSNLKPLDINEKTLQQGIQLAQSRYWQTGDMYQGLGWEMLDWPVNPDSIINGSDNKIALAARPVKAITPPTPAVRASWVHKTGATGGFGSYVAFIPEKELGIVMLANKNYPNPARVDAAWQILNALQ
row,SMILES,Potency
1,COc1ccc(/C=C/C(=O)NC2CC3CCC2C3)cc1 (stereo unspecified),"inconclusive [inhibitor, full curve]"
2,O=C(c1ccccc1Cl)N1CCCC(c2nc3c(nnn3Cc3ccccc3)c(=O)[nH]2)C1 (stereo unspecified),"inconclusive [inhibitor, full curve, poor fit]"
3,Cc1cc(C(=O)N/N=C2\CCCC(=O)C2)c2ccccc2n1,"inconclusive [inhibitor, partial curve, poor fit]"
4,CCc1nn(CC(=O)NCCCc2ccccc2)c(=O)c2cc3c(OC)cccc3n12,"inconclusive [inhibitor, full curve]"
5,CC(C)(C)P(=O)(c1ccncc1)N1CCCC1 (stereo unspecified),"inconclusive [inhibitor, full curve, poor fit]"
6,COC(=O)c1cc(N=CC2=C(O)CC(C)(C)CC2=O)cc(C(=O)OC)c1,"inconclusive [inhibitor, full curve, poor fit]"
7,Cc1ccc(Cn2nnc3c(=O)n(Cc4cccc(C)c4)cnc32)cc1,inactive
8,Cc1occc(=O)c1OCc1ccccc1,"inconclusive [inhibitor, full curve, poor fit]"
9,CCc1c(C)nc2ncnn2c1N1CCCC(C(=O)Nc2ccc(NC(C)=O)cc2)C1 (stereo unspecified),"inconclusive [inhibitor, full curve]"
10,Cc1ccc2[nH]c3c(NCCN4CCOCC4)ncnc3c2c1,inactive
11,CCOCCCn1c(SC(C(=O)Nc2cc(C)ccc2C)c2ccccc2)nnc1-c1ccc(Cl)cc1 (stereo unspecified),inactive
12,CC(C)c1ccccc1OCC(=O)N1CCCCCCC1,"inconclusive [inhibitor, partial curve, poor fit]"
13,Cc1nn(C)cc1CN(C)C(=O)CCc1nnc(CCC2CCCCC2)o1,inactive
14,COc1cc([C@H]2Oc3cc([C@H]4Oc5cc(O)cc(O)c5C(=O)[C@@H]4O)ccc3O[C@@H]2CO)ccc1O,inactive
15,Cc1ccc(N2CCN(C(=O)C3CCN(c4ncnc5c4nc4n5CCCCC4)CC3)CC2)c(C)c1,inactive
16,CN(c1ccc(OCC(=O)OCC(=O)Nc2ccccc2)cc1)S(=O)(=O)c1ccc(F)cc1,"inconclusive [inhibitor, full curve, poor fit]"
17,Cc1nc(Sc2ccc(Br)cc2)c(C#N)c(C)c1[N+](=O)[O-],inactive
18,COc1cc(NC(=O)c2cc(Cl)ccc2Cl)ccc1-c1cc2ccccc2oc1=O,"inconclusive [inhibitor, partial curve]"
19,Cc1ccc2scc(N3CCCCC3)c(=O)c2c1,inactive
20,CCOc1ccc(NC(=S)N(CCN2CCOCC2)Cc2cc3cc4c(cc3[nH]c2=O)OCCO4)cc1,inactive
21,O=C(Cc1n[nH]c(=O)c2ccccc12)OCc1c(Cl)cccc1Cl,"inconclusive [inhibitor, full curve, poor fit]"
22,CC(=O)Nc1ccc(NC(=O)CN(c2ccc([N+](=O)[O-])cc2)S(=O)(=O)c2ccccc2)cc1,inactive

row,SMILES,Potency
1,O=Cc1ccc(OCC(=O)Nc2ccccc2C(F)(F)F)cc1,inactive
2,CC(=O)c1cc(F)c(N2CCOCC2)cc1C,"inconclusive [inhibitor, partial curve]"
3,COc1ccccc1OCCN(C#N)c1nc(N(C)C)nc(N(C)C)n1,"inconclusive [inhibitor, partial curve, poor fit]"
4,O=C(NCc1ccco1)/C(=C\c1ccco1)NC(=O)c1ccco1,inactive
5,COc1cccc(C(=O)N(C)CC2CCN(CCc3cccc(C(F)(F)F)c3)CC2)c1,"inconclusive [inhibitor, partial curve, poor fit]"
6,CC1(C)OC(=O)N(c2ccccc2)C12C=Cc1cc(Br)ccc1O2 (stereo unspecified),"inconclusive [inhibitor, full curve, poor fit]"
7,Cc1cccc(CNC(=O)c2ccc(C)c(-n3c(C)nc4cccnc43)c2)c1,inactive
8,CCOc1ccc(-n2c(=O)c3c(C)c(C)sc3n(CC(=O)N3CCC(C)CC3)c2=O)cc1,inactive
9,O=C(NCc1ccccc1Cl)c1ccc(Cn2c(=O)c3cccn3c3cccnc32)cc1,inactive
10,Cc1ccccc1NS(=O)(=O)c1ccc(C(=O)NCC(c2ccco2)N(C)C)cc1 (stereo unspecified),"inconclusive [inhibitor, full curve, poor fit]"
11,O=C(O)c1ccc2c(c1)C(=O)N(c1cccc(C(=O)/C=C/c3ccccc3)c1)C2=O,inactive
12,CCCC[C@]12Cc3cc(C#N)ccc3C(O1)c1c(cc(C)n(Cc3ccccc3)c1=O)O2,"inconclusive [inhibitor, single point]"
13,COc1cc(OC)c(NC(=O)c2c(C)oc3nc(C)nc(N4CCOCC4)c23)cc1Cl,inactive
14,N=c1c(S(=O)(=O)c2ccc(Cl)cc2)cc2c(=O)n3ccccc3nc2n1CCN1CCOCC1,"inconclusive [inhibitor, partial curve]"
15,O=C(NCCN1CCN(C(=O)c2ccc(F)cc2)CC1)c1ccc(F)cc1,"inconclusive [inhibitor, full curve]"
16,CC(=O)C1=C(c2ccc(Br)cc2)N(C(C)=O)n2c(nnc2C2CCCCC2)S1,inactive
17,COc1ccc(C2CC(=O)C3=C(C2)Nc2ncnn2C3c2ccccc2C)cc1 (stereo unspecified),"inconclusive [inhibitor, partial curve, poor fit]"
18,Cc1ccc(C(=O)NC2CCCC(C)C2C)cc1S(=O)(=O)N1CCCCC1 (stereo unspecified),"inconclusive [inhibitor, partial curve]"
19,COC(=O)c1sccc1NC(=O)c1ccco1,"inconclusive [inhibitor, full curve]"
20,COc1ccc(N2CCN(C(c3cccs3)c3nnnn3C3CCCC3)CC2)cc1 (stereo unspecified),"inconclusive [inhibitor, single point]"
21,CCN(Cc1ccccc1)C(=O)c1ccc2c(=O)n3c(nc2c1)CCC3,"inconclusive [inhibitor, full curve, poor fit]"
22,CC(C)CNc1nc(NC(C)(C)C)nc(Oc2ccc(=O)[nH]n2)n1,"inconclusive [inhibitor, full curve, poor fit]"

row,SMILES,Potency
1,Cc1cccc(-c2nc(CN3CCCC(C(=O)NC4CCCCCC4)C3)c(C)o2)c1 (stereo unspecified),"inconclusive [inhibitor, single point]"
2,Cc1noc(C)c1CSc1ccccc1C(=O)N1CCN(c2ccccc2)CC1,"inconclusive [inhibitor, partial curve]"
3,O=C1CC[C@H](N2C(=O)c3ccccc3C2=O)C(=O)N1,"inconclusive [inhibitor, full curve, poor fit]"
4,CCOC(=O)c1c(CSc2ccccc2)n(C)c2cc(Br)c(OCC(O)CNC(CO)(CO)CO)cc12 (stereo unspecified),"inconclusive [inhibitor, full curve]"
5,O=C(N/N=C/c1ccccn1)c1ccc(S(=O)(=O)N2CCCCCC2)cc1,"inconclusive [inhibitor, single point]"
6,COc1ccc(C(=O)Nc2ccc(S(=O)(=O)Nc3cc(C)nc(C)n3)cc2)c(OC)c1,"inconclusive [inhibitor, full curve, poor fit]"
7,Cc1nc(SCCc2ccccc2)[nH]c(=O)c1C,"inconclusive [inhibitor, full curve, poor fit]"
8,Cc1ccc(S(=O)(=O)N(C)c2ccc(C(=O)NCCc3ccccc3)cc2)cc1,inactive
9,O=C(Cn1nc(Cl)nc1Cl)c1cc2ccccc2oc1=O,"inconclusive [inhibitor, full curve, poor fit]"
10,C=CCn1c(SCC(=O)NCC2CCCO2)nc2scc(-c3ccccc3)c2c1=O (stereo unspecified),inactive
11,Cc1ccc(C(=O)Nc2nc(-c3nnn(-c4cccc(C(F)(F)F)c4)c3C)ns2)cc1,inactive
12,C=CCn1c(SCCN2C(=O)c3ccccc3C2=O)nc2scc(-c3ccccc3)c2c1=O,"inconclusive [inhibitor, partial curve, poor fit]"
13,O=c1[nH]c(CN2CCc3ccccc32)nc2scc(-c3cccs3)c12,"inconclusive [inhibitor, full curve, poor fit]"
14,O=c1[nH]c(CSc2ccccn2)nc2c1cnn2-c1ccccc1,"inconclusive [inhibitor, partial curve]"
15,CCOC(=O)c1nc(Nc2ccc(C(=O)OC)cc2)c2ccccc2n1,"inconclusive [inhibitor, partial curve, poor fit]"
16,O=c1cc(-c2ccccc2Cl)oc2c(Br)ccc(O)c12,"inconclusive [inhibitor, partial curve]"
17,Cc1ccc2c(c1)N(CC(=O)c1cccc(Cl)c1)C(=O)C(C)O2 (stereo unspecified),"inconclusive [inhibitor, partial curve, poor fit]"
18,COc1ccccc1N1CCN(C2CCN(C(=O)c3cccc(F)c3)CC2)CC1,inactive
19,CN1CCN(C(=S)SCC(=O)Nc2nc(-c3ccccc3)c(-c3ccccc3)o2)CC1,"inconclusive [inhibitor, single point]"
20,COC(=O)c1ccc(NS(=O)(=O)c2cc(C)ccc2OC)cc1,"inconclusive [inhibitor, single point]"
21,Nc1nc(Nc2ccccc2Cl)cc(=O)[nH]1,"inconclusive [inhibitor, partial curve]"
22,CC1=C(C(=O)OC(C)C)C(c2ccccc2Cl)CC(=O)N1 (stereo unspecified),"inconclusive [inhibitor, full curve, poor fit]"
